According to PubChem BioAssay AID504332 (National Center for Advancing Translational Sciences (NCATS), 2011):
“And” between values parts separate entries of the source, which are not always exact repeats. Equal entries are not always repeated. In all, about 350,000 compounds went through this assay and about 31,000 (8.9%) were called active. This list was built around the results that the source calls inconclusive (neither active nor inactive); the mix of calls is not that of the screen. Calls follow the shape of the dose curve; as a rule, active = well fitted inhibition curve with a large enough effect; inconclusive = small, poorly fitted or top-dose-only effect; inactive = no such curve, though single readings can be large or run the other way. Potencies of inconclusive entries are doubtful fits and often do not repeat.
% is scaled to controls: 0 for no effect and ±100 for the full control effect; potency is read from the fitted curve at half-maximal effect; tags tell the direction and shape of the fitted curve.
Also: nearly all actives have a fitted effect of over 75% in size.

The compounds below were run against Histone-lysine N-methyltransferase EHMT2 (Homo sapiens) (UniProt Q96KQ7) (assay: qHTS Assay for Inhibitors of Histone Lysine Methyltransferase G9a). Details: G9a H3K9 monomethylation, AlphaScreen, 2 h; activity, negative = inhibition: at 59 µM (top of the series) unless noted.
Sequence of UniProt Q96KQ7 (Q96KQ7 whole entry, looked up): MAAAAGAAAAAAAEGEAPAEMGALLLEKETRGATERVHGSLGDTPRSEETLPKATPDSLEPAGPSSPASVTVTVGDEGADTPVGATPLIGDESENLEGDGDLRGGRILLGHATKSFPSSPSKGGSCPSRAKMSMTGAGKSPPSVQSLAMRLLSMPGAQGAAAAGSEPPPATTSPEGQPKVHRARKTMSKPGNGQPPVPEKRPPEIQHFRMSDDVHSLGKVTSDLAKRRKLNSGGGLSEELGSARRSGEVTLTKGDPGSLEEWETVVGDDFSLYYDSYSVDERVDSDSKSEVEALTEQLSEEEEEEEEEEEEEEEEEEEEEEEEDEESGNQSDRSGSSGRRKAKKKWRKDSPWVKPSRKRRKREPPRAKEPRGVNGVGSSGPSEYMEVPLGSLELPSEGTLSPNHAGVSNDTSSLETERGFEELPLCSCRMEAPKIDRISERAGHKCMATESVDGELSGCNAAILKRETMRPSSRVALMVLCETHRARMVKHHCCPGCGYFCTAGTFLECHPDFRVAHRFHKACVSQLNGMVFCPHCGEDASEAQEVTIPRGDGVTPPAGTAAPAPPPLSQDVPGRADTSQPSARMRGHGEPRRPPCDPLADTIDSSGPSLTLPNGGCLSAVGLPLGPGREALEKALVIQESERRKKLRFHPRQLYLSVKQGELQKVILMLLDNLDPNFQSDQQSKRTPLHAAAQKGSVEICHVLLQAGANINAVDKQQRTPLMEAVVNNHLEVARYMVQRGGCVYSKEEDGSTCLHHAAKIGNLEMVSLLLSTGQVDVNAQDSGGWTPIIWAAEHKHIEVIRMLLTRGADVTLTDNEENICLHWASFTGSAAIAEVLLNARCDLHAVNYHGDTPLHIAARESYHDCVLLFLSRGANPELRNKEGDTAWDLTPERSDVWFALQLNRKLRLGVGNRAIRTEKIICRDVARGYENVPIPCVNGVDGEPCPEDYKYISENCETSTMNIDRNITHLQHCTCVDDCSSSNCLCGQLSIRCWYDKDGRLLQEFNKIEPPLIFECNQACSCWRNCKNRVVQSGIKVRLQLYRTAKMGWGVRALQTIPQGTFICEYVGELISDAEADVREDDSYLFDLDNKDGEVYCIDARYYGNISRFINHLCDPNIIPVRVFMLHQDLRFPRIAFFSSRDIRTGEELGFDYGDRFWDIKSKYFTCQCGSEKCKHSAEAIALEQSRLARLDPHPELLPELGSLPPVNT
How it was run: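 Enzyme 20 nM + cpd, 15 min RT; add b-H3K9 pep 500 nM / SAM 20 uM; 2 h RT; anti-H3K9me1 Ab 0.5 ug/mL + SA donor / anti-rabbit acceptor beads 20 ug/mL each, 10 min; AlphaScreen read.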
`CCOc1ccc(NC(=O)C2CCN(c3nnc(C)c4c(C)n(-c5ccccc5)nc34)CC2)cc1` was tested, and the Potency was “inactive”. For `COc1ccc(-n2c(Cc3cccn3C)nnc2SCC(=O)Nc2ccc(F)cc2F)cc1`, the Potency was active: 39.8 µM. For `O=C(N[C@@H](Cc1ccccc1)C(=O)O)c1ccc(C(F)(F)F)cc1`, the Potency was “inactive”. With `COc1cc(/C=C/C(=O)c2c(O)ccc3c(C)cc(=O)oc23)ccc1O` the Potency was inconclusive: 28.2 µM [inhibitor, single point]. For `S=C1Cc2ccccc2N1`, the Potency was active: 4.47 µM. In the case of `CCCC[N+](C)(C)CCC(=O)NC(C)(C)CS(=O)(=O)[O-]`, the Potency was inconclusive: 31.6 µM [inhibitor, single point]. For `Cc1nc2nc(CCc3ccccc3)nn2c(C)c1Cl`, the Potency was “inactive”. `COC(=O)CSC1=C(C#N)C(c2ccccc2F)CC(=O)N1` (centres undefined) was tested, and the activity, negative = inhibition was inconclusive: -52.8% [inhibitor]. In the case of `Cn1cnnc1SCC(=O)Nc1ccc2nc(SCc3ccccc3)sc2c1`, the Potency was inconclusive: 100 µM [inhibitor, single point]. For `Cc1ccc(NCc2nc3ccccc3n2C)c(C)c1`, the Potency was inconclusive: 89.1 µM [inhibitor, single point]. `CCOc1ccc(-c2nc(C)c(C(C)=O)n2O)cc1` was tested, and the Potency was inconclusive: 1.78 µM [inhibitor, partial curve, poor fit]. For `O=C(CSc1nnc2ccc(-c3ccncc3)nn12)c1cccs1`, the Potency was inconclusive: 79.4 µM [inhibitor, single point]. In the case of `O=C(NOC(=O)c1ccccc1Cl)c1cccs1`, the Potency was inconclusive: 44.7 µM [inhibitor, partial curve, poor fit]. With `COc1ccc(NC(=O)CN(c2cc(C)cc(C)c2)S(=O)(=O)c2c(C)n[nH]c2C)cc1` the Potency was “inactive”. In the case of `NNC(=S)Nc1ccc(Cl)cc1`, the activity, negative = inhibition was inconclusive: -91.4% [inhibitor]. `CCC(C)Sc1cc(-c2nc3ccccn3c2NC2CCCCC2)ccc1OC` (centres undefined) was tested, and the activity, negative = inhibition was inactive: 8.59% [at 2.33 µM]. For `CC(C)N1CCN(Cc2cccc(-c3ccco3)c2)CC1CCO` (centres undefined), the Potency was active: 25.1 µM. With `Cc1ccc(S(=O)(=O)N2CCN(c3nc(C(C)C)c4c(c3C#N)CC(C)(C)OC4)CC2)cc1` the Potency was inconclusive: 89.1 µM [inhibitor, single point]. In the case of `Cc1nc(N2CCCCCC2)c2ccccc2n1`, the Potency was inconclusive: 89.1 µM [inhibitor, single point]. For `C#CCNC(=O)C1=C[C@@H](C2CCCCC2)C[C@@H](OCCCCO)O1`, the activity, negative = inhibition was inconclusive: -70.2% [inhibitor]. With `COc1ccc(NC(=O)CCS(=O)(=O)c2nc(-c3ccc4c(c3)OCO4)cc(C(F)(F)F)n2)cc1` the Potency was inconclusive: 7.94 µM [inhibitor, partial curve, poor fit]. `Cc1c(C(=O)N2CCCC2)oc2c1-c1nn(CC(=O)NCc3ccccc3Br)cc1CC2` was tested, and the Potency was inconclusive: 22.4 µM [inhibitor, partial curve, poor fit]. With `Cc1c(C(=O)N2CCN(Cc3ccc4c(c3)OCO4)CC2)sc2ncnc(N3CCN(c4ccccc4)CC3)c12` the Potency was “inactive”. With `CCOc1ccccc1NC(C)C(=O)Nc1cc(C(F)(F)F)ccc1N1CCOCC1` (centres undefined) the Potency was inconclusive: 22.4 µM [inhibitor, single point]. In the case of `CCN(CC)CCNc1ccc(CO)c2sc3ccccc3c(=O)c12`, the Potency was inconclusive: 7.94 µM [inhibitor, partial curve] and inconclusive: 56.2 µM [inhibitor, partial curve, poor fit]. For `COc1ccc2[nH]cc(C(=O)CN3CCN(C/C=C/c4ccccc4)CC3)c2c1`, the Potency was inconclusive: 50.1 µM [inhibitor, partial curve, poor fit]. For `c1ccc2c(Nc3nnc(-c4ccncc4)s3)cccc2c1`, the Potency was inconclusive: 70.8 µM [inhibitor, single point]. `Cc1cccc(OCC(=O)NCc2n[nH]c(=O)c3ccccc23)c1` was tested, and the Potency was inconclusive: 100 µM [inhibitor, single point]. With `C/C(=N\NC(=O)c1cccs1)c1cccnc1` the Potency was “inactive”. With `O=C(NNc1cccc(Cl)n1)Nc1cccc(Cl)c1` the Potency was inconclusive: 0.794 µM [inhibitor, full curve, poor fit]. `CCN(C(=O)CSc1ncccc1C(=O)O)C1CCCCC1` was tested, and the Potency was inconclusive: 100 µM [inhibitor, single point]. For `CCOc1ccc2nc3cc(N)ccc3c(N)c2c1`, the Potency was inconclusive: 3.16 µM [inhibitor, partial curve, poor fit] and the activity, negative = inhibition was inconclusive: -74.1% [inhibitor] [at 2.33 µM]. For `O=C(CN1C(=O)NC2(CCc3ccccc32)C1=O)c1c[nH]c2ccccc12` (centres undefined), the Potency was inconclusive: 28.2 µM [inhibitor, partial curve, poor fit]. In the case of `Cc1c(-c2ccccc2)sc(N)c1C(=O)N1CCOCC1`, the Potency was active: 3.98 µM. In the case of `Nc1cc(C(=O)O)ccc1Sc1ccccc1C(=O)O`, the Potency was active: 4.47 µM. In the case of `N#Cc1nc(-c2ccc(OCc3ccccc3)cc2)oc1NCCCn1ccnc1`, the activity, negative = inhibition was inconclusive: -78.8% [inhibitor]. With `CC(=O)c1cccc(N2Cc3ccccc3C2=NC(=O)CCl)c1` the Potency was active: 31.6 µM. For `COc1ccc(CN(C)C(=O)c2ccccc2Sc2ccccc2C#N)c(OC)c1`, the Potency was “inactive”. With `CC1Cc2cc(-c3csc(NC(=O)Cc4cccs4)n3)ccc2N1S(C)(=O)=O` (centres undefined) the Potency was inconclusive: 39.8 µM [inhibitor, partial curve, poor fit]. `Cc1ccc(C)c(Cc2c(C)nc3c(C(=O)N4CCOCC4)cnn3c2C)c1` was tested, and the Potency was “inactive”. In the case of `Cc1nc2scc(C)n2c(=O)c1S(=O)(=O)Nc1ccc(N2CCN(S(C)(=O)=O)CC2)cc1`, the Potency was inconclusive: 17.8 µM [inhibitor, partial curve, poor fit]. In the case of `COC(=O)c1ccc(C2c3[nH]c4ccccc4c3C[C@H]3C(=O)N(C4CCN(Cc5ccccc5)CC4)CC(=O)N23)cc1` (some centres undefined), the Potency was inconclusive: 44.7 µM [inhibitor, partial curve, poor fit]. With `CC(=O)C1=C(C)NC(=O)NC1c1cc(Br)ccc1OCC(N)=O` (centres undefined) the Potency was inconclusive: 3.16 µM [inhibitor, full curve].
